In patent US11845782B2, “Relaxin fusion polypeptides and uses thereof” (MedImmune Limited, priority 2017, dated 2023):

Tests used:
[1] = Rat PK profile, Fc capture and Relaxin detection ELISA (Example 5); assay type: in vivo, Wistar rats; details: 4 mg/kg, non-compartmental analysis
Protocol: The pharmacokinetic (PK) profiles of some Relaxin 2 fusion polypeptides of the invention were determined using a Relaxin ELISA assay. The rat in vivo PK profiles were determined for the following fusion polypeptides: Fc_hRLX2_4-15AA and Fc_hRLX2_15-15AA.
SureBlue™ TMB Substrate (KPL, 52-00-01. Ready-to-use SureBlue™ TMB Microwell Peroxidase Substrate) and TMB Stop Solution (KPL, 50-85-05) were used to develop the assays. Fc_hRLX2_4-15AA and Fc_hRLX2_15-15AA fusion polypeptides were administered to 8-week-old Wistar rats (Charles River) by the intravenous (IV) or subcutaneous (SC) route at 4 mg/kg. Blood samples were collected at 5 minutes, 30 minutes, 3 hours, 8 hours, 1 day, 2 days, 3 days, 4 days, 7 days, 9 days, 14 days and 21 days post drug administration for the IV route, and at 8 hours, 1 day, 2 days, 3 days, 4 days, 7 days, 9 days, 14 days and 21 days post drug administration for the SC route. Samples were collected into a tube containing EDTA and placed on ice immediately. Samples were centrifuged for 15 minutes at 1000×g within 30 minutes of collection. Aliquoted samples were stored at −20° C. and later tested by ELISA. The half-life was assessed using an Fc capture and Relaxin detection ELISA assay (using the polyclonal antibody from R&D Systems Relaxin detection ELISA kit, Catalogue number DRL200).

[2] = tested on: isoproterenol-induced cardiac hypertrophy; test: Isoproterenol-induced cardiac hypertrophy and fibrosis in mice (Example 8); assay type: in vivo, C57BL/6J male mice; details: given concomitantly with isoproterenol 15 mg/kg/day, 2 weeks
Protocol: A total of 6 study groups with n=8 mice (C57BL/6J male mice) per group were performed. The groups were: vehicle, Fc_hRLX2_15-15AA, isoproterenol, isoproterenol+enalapril, isoproterenol+recombinant human relaxin 2, and isoproterenol+Fc_hRLX2_15-15AA. Drugs and vehicle were delivered by Alzet minipumps (model 1002; rate: 0.25 μl/hr (±0.05), 6 μl one day @37° C.) or subcutaneous injection for Fc_hRLX2_15-15AA.
Isoproterenol was made as follows: A 500 mM solution (123.9 mg/ml) freshly in 0.0002% Na-Asc saline, […] filtered). The final [Iso] concentration in minipump: 15 mg/kg/day=15 mg/247.72/6 μl/1000 g=10.1 mM per gram of body weight (BVV). Vehicle was 0.0002% Na-ascorbate, Sigma catalog #A7631.
Enalapril was made as follows: Enalapril is used as maleate salt, MW of 492.52, Sigma catalog #E6888. A 200 mM stock solution (98.5 mg/ml) freshly in methanol, […] filtered. The final concentration in minipump: 2.5 mg/kg/day=2.5 mg/492.52/6 μl/1000 g=0.846 mM per gram of body weight (BVV), i.e., one minipump for 30 gram of mouse will need 19.0 μl of 200 mM Ena (150 μl×0.846/200 mM×30 g BW). […]
At the end of the study, body weight, heart weight, lung weight, and tibia length were measured. […]
Fibrosis was measured based on the detection of hydroxyproline (Total collagen assay, QuickZyme Biosciences). […]

[3] = Mouse PK profile, FcRn transgenic mouse, Fc capture and Relaxin detection ELISA (Example 6); assay type: in vivo

Molecule | mean terminal half-life ([1]; IV) [h] | mean terminal half-life ([1]; SC) [h] | isoproterenol-induced increase in cardiac hypertrophy (HW/TL) [2] | isoproterenol-induced increase in fibrosis (collagen content) [2] | mean terminal half-life, SC dose group greater than IV dose group ([3]; 6 mg/kg, SC vs IV) | dose-normalized Cmax ([3]; SC, 1, 6 or 30 mg/kg) | time to peak serum concentration ([3]; SC, 1, 6 or 30 mg/kg) [h]
Fc_hRLX2_4-15AA: Native human IgG1 Fc / 4AA connector GGSP / Relaxin 2 A chain / 15AA linker / B chain variant; SEQ ID NO. 2 (protein, fusion protein) [no letters for human IgG1 Fc]GGSPQLYSALANKCCHVGCTKRSLARFCGGGGSGGGGSGGGGSSWMEEVIKLCGRELVRAQIAICGMSTWS | 59 | 77 | – | – | – | – | –
Fc_hRLX2_15-15AA: Native human IgG1 Fc / 15AA connector / Relaxin 2 A chain / 15AA linker / B chain variant; SEQ ID NO. 16 (protein, fusion protein, Native human IgG1 Fc / 15AA connector / Relaxin 2 A chain / 15AA linker / B chain variant; 16) [no letters for human IgG1 Fc]GGGGSGGGGSGGGGSQLYSALANKCCHVGCTKRSLARFCGGGGSGGGGSGGGGSSWMEEVIKLCGRELVRAQIAICGMSTWS | 86.2 | 90 | significantly attenuated | significantly attenuated | approximately 26.5% | decreased with an increase in dose | 24 to 72
